The record followed here is PubChem BioAssay AID463173 (ICCB-Longwood Screening Facility, Harvard Medical School, 2010).

Among all 52,000 compounds or so, about 1,700 (3.3%) were called active. Cut-off read from the data, not from the text of the source: active = survival mostly below about 52% (no sharp cut-off); inactive = mostly above about 56%. The list shows a part of the results.

In the experiment the test system is Wild type. In words: growth inhibition of S. aureus wild type versus tarO mutant, primary screen, teichoic acid synthesis inhibitors, RN4220, OD600 (AID 463173). The following applies: S. aureus RN4220 wild type/DeltatarO growth, OD600, 18 h, hits give low values, screened at 18.75 µg/mL (by protocol).
For `CN(Cc1ccccc1)c1ccc(-c2nc(-c3ccccn3)no2)cc1[N+](=O)[O-]`, the survival was inactive: 67%.
Turning to `O=C(COC(=O)c1ccco1)Nc1cccc2ccccc12`, the survival was inactive: 113%.
As to `COc1cccc(N2CCN(C(=O)c3cc4cc5cc(C)ccc5nc4s3)CC2)c1`, the survival is inactive: 79%.
For the molecule `CCn1c(CN2CCC(C)CC2)nc2cc(NC(=O)COc3ccc(Cl)c(C)c3)ccc21`, the survival was inactive: 61%.
Take `CC(C)C1Oc2ccccc2N(CC(=O)N(C)C2CCCCC2)C1=O` (configuration not stated): the survival is inactive: 112%.
Consider `COc1cc(OC)c(NC(=O)CCc2c(C)nc3ncnn3c2C)cc1Cl`, for which the survival is inactive: 71%.
As for `CCC(=O)N1c2ccccc2CC1C(=O)NCc1ccccc1Cl` (configuration not stated), the figure is inactive: 68%; as for `Cc1cccc(NC(=O)CCn2cnnn2)c1C`, inactive: 71%; as for `Cc1ccc(Cn2cccc(NC(=O)c3ccncc3)c2=O)cc1`, inactive: 104%.
Turning to `Cc1cccc(NC(=O)Cn2cc(C(=O)c3ccco3)c3ccccc32)c1`, the survival was inactive: 97%.
In the case of `Cc1ccc(CNC(=O)c2ccc(Cn3c(=O)c4ccccc4n(CC(=O)Nc4ccc(C)cc4)c3=O)cc2)cc1`, the survival is inactive: 69%.
For `O=C(NCCc1ccccc1)c1ccc(Cl)nc1` the value was inactive: 97%.
On to `COc1ccc(Cn2cc(S(=O)(=O)c3ccc(Cl)cc3)c(=O)c3cc4c(cc32)OCO4)cc1`, for which the survival was inactive: 76%.
For `O=C1CN(Cc2ccccc2)C(=NCc2ccco2)S1` the value was inactive: 104%; for `CC1CCN(CC(=O)N2CCN(c3ccccc3)CC2)CC1`, inactive: 106%.
With `Cc1ccccc1OCCn1c(-c2ccc(Cl)cc2)nc2ccccc2c1=O`, the survival was inactive: 63%.
As for `O=C(OCc1cc(=O)n2nc(C3CCCCC3)sc2n1)c1ccc(F)cc1`, the figure is inactive: 55%; as for `CCOc1ccc(NC(=O)CC2C(=O)N(c3ccc(Cl)cc3)C(=O)N2Cc2cccs2)cc1` (configuration not stated), inactive: 71%.
Take `O=C(Nc1ccc2oc(-c3ccncc3)nc2c1)c1ccccc1Cl`: the survival was inactive: 73%.
Take `Cc1oc(-c2ccc(Cl)cc2)nc1CSc1nc2ncccc2[nH]1`: the survival is inactive: 110%.
As for `COc1ccc(-c2noc(-c3cccnc3N3CCN(c4ccc(OC)cc4)CC3)n2)cc1`, the survival was inactive: 89%.
`O=C(Nc1cccc(Cl)c1)c1ccc2c(c1)CCN2S(=O)(=O)c1ccccc1`: the survival was inactive: 76%.
As for `CCCCN(CC)C(=O)CSc1c2c(nc3ccc(Cl)cc13)CCCC2`, the figure is active: -2%.
Turning to `CCOc1ccc(NC(=O)c2sc3nc4c(c(-c5ccc(OC)cc5)c3c2N)C(=O)CC(C)(C)C4)cc1`, the survival is inactive: 69%.
Take `CCOc1ccc(-n2cc(-c3ccccc3)c3c(N4CCN(c5ccccc5OC)CC4)ncnc32)cc1`: the survival is inactive: 70%.
Regarding `COC(=O)c1c(NC(=O)/C(C#N)=C/c2ccccc2)sc2c1CCC2`, the survival is inactive: 74%.
For the molecule `COc1ccccc1Nc1cc(C(=O)NC2CCC(C)CC2)c2ccccc2n1` (configuration not stated), the survival was inactive: 84%.
Regarding `CCOCCCNC(=O)CN1C(=O)COc2ccc(S(=O)(=O)N3CCCC3)cc21`, the survival was inactive: 77%.
Consider `CCOC(=O)c1c(C)[nH]c(C)c1S(=O)(=O)N1CCCC(C(=O)NCc2ccc(Cl)cc2)C1` (configuration not stated), for which the survival was inactive: 59%.
Regarding `COc1ccccc1CN1C(=O)CN(C2CCCCCC2)C(=O)C1c1ccc(F)cc1` (configuration not stated), the survival is inactive: 77%.
For `N#C/C(=C\c1cn(Cc2ccccc2C#N)c2ccccc12)C(=O)NCc1cccs1`, the survival was inactive: 110%.
For `Cc1ccc2nc(Nc3ccc(C)c(F)c3)c3nncn3c2c1` the value was inactive: 43%; for `Cc1ccc(CNC(=O)CCn2cnc3ccccc3c2=O)cc1`, inactive: 80%; for `Cc1c(Cl)cccc1NC(=O)C1CCN(c2ncnc3c2nc2n3CCCCC2)CC1`, inactive: 129%.
For the molecule `CCN(C(=O)Nc1cn(CC(C)C)c(=O)c2ccccc12)c1cc(C)ccc1C`, the survival was inactive: 65%.
For `Cc1ccc(N2CC(NC(=O)c3ccc(S(=O)(=O)N4CCOCC4)cc3)CC2=O)cc1` (configuration not stated) the value was inactive: 47%.
With `CCOC(=O)c1cnn(-c2ccc(C(=O)Nc3cccc(C(C)=O)c3)cc2)c1N`, the survival is inactive: 47%.
As for `CCn1nc(C)c(CCN(C)C(=O)Nc2cc(OC)c(OC)c(OC)c2)c1C`, the figure is inactive: 71%.
As for `Cc1ccnc(NC(=O)CCCOc2ccc(Cl)cc2Cl)c1`, the figure is inactive: 98%.
As for `O=C(COCc1cc(-c2cccs2)on1)N1CCN(c2cccc(Cl)c2)CC1`, the figure is active: 10%; as for `COc1ccc2cc(C(=O)NCc3ccc4c(c3)CCN4C(=O)c3ccc(F)cc3)[nH]c2c1`, inactive: 68%; as for `COc1ccc(-n2c(C)nc(=O)c(-c3ccccc3)c2C)cc1`, inactive: 106%.
In the case of `O=C(O)c1c2c(nc3ccc(F)cc13)CCCC2`, the survival was inactive: 114%.
Consider `O=C(CCn1c(=O)c2cccn2c2cccnc21)N1CCN(c2ccccc2F)CC1`, for which the survival was inactive: 86%.
As for `COc1cc(C)cc2oc(=O)c(CC(=O)NCCc3ccc(Cl)cc3)c(C)c12`, the figure is inactive: 118%; as for `Fc1cccc(-c2nnn3c2nc(NCCc2ccccc2)c2ccccc23)c1`, inactive: 87%; as for `Cc1cccc(OCC(=O)Nc2ccc(-c3nc4ccccc4o3)cc2)c1C`, inactive: 73%.
For `COc1ccc(-c2cc(C(F)(F)F)n3nc(C(=O)NCCN4CCOCC4)c(Br)c3n2)cc1`, the survival is inactive: 101%.
For `CC(C)CNC(=O)N1[C@H](c2cccs2)[C@@H](C)C(=O)[C@@H](C)[C@@H]1c1cccs1` the value was inactive: 74%; for `CC(=O)NC1(c2ccccc2)CCN(Cc2nnnn2C(C)(C)C)CC1`, inactive: 102%.
For `COc1ccc(C)cc1NS(=O)(=O)c1c(C(=O)N2CCCCCC2)c(C)n(C)c1C`, the survival was inactive: 85%.
Turning to `CCn1nnnc1SCC(=O)c1ccc(C)cc1C`, the survival was inactive: 103%.
For the molecule `CC(C)OCCCNC(=O)Cn1ccc2cc(S(=O)(=O)N3CCCCCC3)ccc21`, the survival was inactive: 124%.
As for `COc1ccc(CC(=O)NCCc2csc(-c3cccc(C)c3)n2)cc1`, the figure is inactive: 74%; as for `CC(C)Nc1nc(NC(C)C)nc(C(N)=O)n1`, inactive: 112%; as for `COc1ccc(C)cc1NC(=O)C1CCN(S(=O)(=O)c2ccc(OC)c(OC)c2)CC1`, inactive: 92%.
Turning to `CC(C)NC(=O)c1cnn2c(C(F)F)cc(-c3ccccc3)nc12`, the survival was inactive: 112%.
With `O=c1c2ccccc2nc2c3ccccc3c(N3CCCCCC3)nn12`, the survival was inactive: 105%.
Consider `CC(=O)c1cccc(NC(=O)CC(c2ccc(C)cc2)N2Cc3ccccc3C2=O)c1` (configuration not stated), for which the survival was inactive: 77%.
For the molecule `Cc1nc(-c2ccccc2)sc1-c1ccc(SCC(=O)NCc2ccc(Cl)cc2)nn1`, the survival is inactive: 92%.
On to `Cc1oc(-c2ccccc2Cl)nc1Cn1c(SCc2cccc(F)c2)nc2cccnc21`, for which the survival is inactive: 71%.
For `C=Cn1c(C(=O)O)ccc1-c1ccc(OC)cc1` the value was inactive: 125%; for `Cc1ccc(CCNS(=O)(=O)c2ccc3c(c2)CC(C)N3C(=O)C2CCC2)cc1` (configuration not stated), inactive: 71%; for `Cc1ccc(-n2c(=O)[nH]c3cc(C(=O)NCc4ccccc4)ccc3c2=O)cc1`, inactive: 92%.
On to `COc1cc2ncc(C(=O)c3ccc(C)cc3)c(N3CCCCC3)c2cc1OC`, for which the survival is active: 2%.
As for `CC(CNC(=O)c1nnc(Cc2ccc(F)cc2)o1)c1ccccc1` (configuration not stated), the figure is inactive: 89%; as for `Cc1ccc(-n2nc3c(=O)n(CC(=O)NCCC(C)C)nc(C)c3c2C)cc1`, inactive: 45%; as for `O=C1CC(NC2CC2)C(=O)N1c1ccccc1` (configuration not stated), inactive: 108%.
For `COCCCNC(=O)Cn1c(=O)nc(-c2ccccc2)c2ccccc21`, the survival was inactive: 80%.
Turning to `CCOc1ccc(CCNC(=O)c2cc(C)nc3c2c(C)nn3-c2cccc(F)c2)cc1`, the survival is inactive: 70%.
As for `Cc1cccn2c(=O)c(C(=O)NCCc3ccccc3)cnc12`, the survival was inactive: 49%.
As for `CCCCC12CN3CC(C)(CN(C1)C3c1ccc(O)c(OC)c1)C2=O` (configuration not stated), the survival was inactive: 86%.
On to `COc1ccc(Cn2cc(C(=O)c3ccc(C)c(C)c3)c(=O)c3ccccc32)cc1`, for which the survival was inactive: 72%.
Regarding `O=C(Cn1cc(S(=O)(=O)Cc2cccc(Cl)c2)c2ccccc21)Nc1ccccc1Cl`, the survival was inactive: 54%.
On to `COc1cccc(NC(=O)CSc2nccn2C2CCCC2)c1`, for which the survival was inactive: 73%.
As for `COc1ccc(CNCCC(c2ccc3c(c2)OCO3)c2ccccc2OC)cc1` (configuration not stated), the figure is inactive: 25%.
As to `CC1CCN(c2nc3ccc(C(=O)NCc4ccccc4Cl)cc3s2)CC1`, the survival is inactive: 89%.
Regarding `O=C(NC1CCCC1)c1ccc2c(c1)N(Cc1ccccc1)C(=O)c1ccccc1S2`, the survival is inactive: 79%.
With `Cc1ccc(F)cc1NC(=O)Cn1c(C)cc(C)c(C#N)c1=O`, the survival is inactive: 131%.
`COc1ccc(C2=C(N3CCN(c4cccc(C)c4)C(C)C3)c3ccccc3C2=O)cc1` (configuration not stated): the survival was inactive: 68%.
As for `COc1cccc(CNC(=O)Cc2c(C)c3ccc(OC)c(C)c3oc2=O)c1`, the survival is inactive: 90%.
As for `NC(=O)C1CCN(C(=O)Cc2ccc(Cl)cc2)CC1`, the figure is inactive: 88%.
Turning to `CCCCCCNc1nc(Oc2ccccc2)nc(Oc2ccccc2)n1`, the survival is inactive: 110%.
Consider `COc1ccc(N2CCN(Cc3nc4c(c(=O)[nH]c(=O)n4C)n3CC(C)C)CC2)cc1`, for which the survival was inactive: 149%.
Take `O=C(NCc1cccc(Br)c1)c1ccc(NC(=O)N2CCCCc3ccccc32)cc1`: the survival is inactive: 79%.
As for `Cc1ccc(S(=O)(=O)c2nnn3c2nc(NCCc2ccccc2)c2sccc23)cc1`, the survival was inactive: 64%.
On to `Cc1ccc(CNC(=O)c2c[nH]n3c(=O)c(Cc4ccc(Cl)cc4)c(C)nc23)cc1`, for which the survival was active: -14%.
For `Cc1ccccc1C(=O)Nc1c(C)nc2ccccn2c1=O` the value was active: 10%.
With `Cn1c(=O)oc2cc(S(=O)(=O)N3CCCC(C(=O)NCCc4ccccc4)C3)ccc21` (configuration not stated), the survival is inactive: 91%.
With `CC(=O)c1ccc(NS(=O)(=O)c2ccc3[nH]c4c(c3c2)CCCC4)cc1`, the survival was inactive: 84%.
Regarding `Cc1ccc2[nH]c(=O)c(CNCCCO)cc2c1`, the survival is inactive: 108%.
As for `CC1(C)NC(=O)N(CC(O)COc2ccc(N3C(=O)c4ccccc4C3=O)cc2)C1=O` (configuration not stated), the survival was inactive: 104%.
